Measured values published in publication PMC4551974.
Results are given in words; binding and its absence hold for the method and conditions named. Some binding calls cover weakened binding; strength is not graded here.

The chains behind the UniProt entries cited, without tags or fusion partners. Where a name states a change or a piece, a line headed by the entry shows the natural chain unless it says otherwise.
UniProt P20263: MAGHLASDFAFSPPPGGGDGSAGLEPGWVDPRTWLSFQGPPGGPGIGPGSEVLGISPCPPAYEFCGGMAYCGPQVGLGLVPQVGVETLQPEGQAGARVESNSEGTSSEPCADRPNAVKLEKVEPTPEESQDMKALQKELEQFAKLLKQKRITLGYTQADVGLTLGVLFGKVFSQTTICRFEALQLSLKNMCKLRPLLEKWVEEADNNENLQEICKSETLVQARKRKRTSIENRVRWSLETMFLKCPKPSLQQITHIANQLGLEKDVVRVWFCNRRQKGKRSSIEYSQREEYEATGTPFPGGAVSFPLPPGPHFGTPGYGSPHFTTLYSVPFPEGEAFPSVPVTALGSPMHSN
UniProt P48431: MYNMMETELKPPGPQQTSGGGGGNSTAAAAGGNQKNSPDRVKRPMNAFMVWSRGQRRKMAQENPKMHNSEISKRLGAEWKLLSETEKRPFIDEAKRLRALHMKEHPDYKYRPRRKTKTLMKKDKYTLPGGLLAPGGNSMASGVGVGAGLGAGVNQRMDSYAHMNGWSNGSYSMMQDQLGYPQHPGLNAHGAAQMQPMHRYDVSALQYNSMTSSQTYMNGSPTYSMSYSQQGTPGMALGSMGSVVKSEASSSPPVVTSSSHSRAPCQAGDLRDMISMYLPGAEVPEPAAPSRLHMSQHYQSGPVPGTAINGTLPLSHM

How the values were obtained:
[1] = target: OCT4 (UniProt P20263); experiment: native gel or EMSA; ternary OCT4/SOX2/DNA supershift on the P32-labeled FGF4 double-stranded DNA probe; 2-3 ug SOX2 lysate with equal amounts of OCT4 lysate, on ice for 1 hour, 6% native polyacrylamide gel
[2] = target: OCT4 (UniProt P20263); experiment: native gel or EMSA; ternary OCT4/SOX2/DNA supershift on the P32-labeled UTF1 double-stranded DNA probe; 2-3 ug SOX2 lysate with equal amounts of OCT4 lysate, on ice for 1 hour, 6% native polyacrylamide gel
[3] = target: OCT4 (UniProt P20263); experiment: native gel or EMSA; ternary OCT4/SOX2/DNA supershift on the P32-labeled HOXB1 double-stranded DNA probe; 2-3 ug SOX2 lysate with equal amounts of OCT4 lysate, on ice for 1 hour, 6% native polyacrylamide gel

Row | binding [1] | binding [3] | Substance | binding [2]
1 | binds | binds | SOX2 R98E M102E mutant (from UniProt P48431 1-317) | no binding (condition: on the Utf1 DNA probe)
2 | binds weakly | binds | SOX2 R113E mutant (from UniProt P48431 1-317) | binds
3 | – | binds | wild-type SOX2 (from UniProt P48431 1-317) | –

Row | Substance | binding [1] | binding [3] | binding [2]
4 | SOX2 K95E R98E mutant (from UniProt P48431 1-317) | binds | no binding (condition: on the Hoxb1 DNA probe) | no binding (condition: on the Utf1 DNA probe)
